The supplement of paper PMC11417369
± gives the standard deviation of the averaged measurements. This is one part of the list.

test system: PfAP2-I AP2 domain 3 (GST-tagged); test: gcPBM binding intensity (ln(normalized median fluorescence intensity)); higher = stronger DNA binding
In short: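 DNA-binding domains from P. falciparum, fused to GST and produced in E. coli, were put on an Agilent 4 × 180k double-stranded probe array for 1 h in 1× PBS holding 1% milk, 0.2 mg/ml BSA, 0.5% salmon testes DNA and 0.03% Triton X-100. Probes were primer-extended, 36 bp long and drawn from intergenic genomic regions, with negative controls included. After Alexa488 anti-GST antibody detection and a 488 nm scan, binding intensity was set as the highest Masliner-normalised natural-log median intensity across replicate spots of either probe orientation.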

Row | Sequence | gcPBM binding intensity (ln)
1 | GTAGGTTTATATTGTAGTACATACAAACGTTAACAA [XGTACX_site5476] | 7.99 ± 0.47
2 | ACAAAATTGATATATGCACACATATATATATTAAAT [CACACA_site8152] | 8.8 ± 0.085
3 | ATACGTATTTTCTTTTGTACATATATATAAAATATT [XGTACX_site2675] | 7.91 ± 0.64
4 | TTTATTTATTATTAAAGTACTAAAATATATTATTAT [XGTACX_site4887] | 7.62 ± 0.43
5 | AATATTGCACCATTTTGTACATAATATATTCAAATA [XGTACX_site475] | 11.7 ± 0.74
6 | TATATTTATTAGTTTCGTACGTACAAAGTTATTTTT [XGTACX_site8847] | 7.98 ± 0.23
7 | TATTTTAATATTTGTAGTACAGATTGAAATGACGAA [XGTACX_site4805] | 8.19 ± 0.52
8 | AATATAATCTTTCAAAAGAAAAAGACTTCATGAAAA [CACACA_negctrl_site1331] | 7.21 ± 0.7
9 | ATATACGCATTAATAACACACAATATGATAACAAAT [CACACA_site3623] | 8.12 ± 0.3
10 | ATTCGTGAACTAGCCAAACACACGAAAAAAAAAAAA [CACACA_site3342] | 8.02 ± 0.93
11 | ATGTAACATAGGAAATGTACATATAAATATAATTTA [XGTACX_site6452] | 7.66 ± 0.35
12 | TTTTATTGATTATTCATAAATATGCTATTCATCTAA [CACACA_negctrl_site1084] | 7.36 ± 0.66
13 | TTTTTTTTTGGGGGTGCATGCAAGACATATATTTAA [TGCATGCA_site228] | 10.5 ± 0.46
14 | CATACATATATATATACACACATACATATATATACA [CACACA_site8165] | 7.99 ± 0.38
15 | TTTTTTTTTTGATGTTGTACATATATATTATATAAT [XGTACX_site2765] | 7.9 ± 0.55
16 | GCTATTTATTTATATTGTACTTTTTTTTTTTTTTTT [XGTACX_site3624] | 8.65 ± 0.38
17 | TATTTTGTTCTTTCCACACACAAATACCTATCTTGT [CACACA_site7833] | 8.35 ± 0.79
18 | AAAAAAAAAAAATGTGCATGCTATATATATATATAT [TGCATGCA_site727] | 9.56 ± 0.3
19 | TTAACAAATAGACACACACACACACGCAAAAAAAAA [CACACA_site6387] | 8.28 ± 0.47
20 | TTTTTTTTTCATTATTGTACATTGAAACTTCATTTT [XGTACX_site6041] | 7.85 ± 0.76
21 | ATATATATATTTACATGTACACATCTATATATAAAC [XGTACX_site5581] | 9.01 ± 0.014
22 | AAAAAAAACGAACACACACACAAATATGTAAAAATA [CACACA_site6673] | 7.77 ± 0.58

Row | Sequence | gcPBM binding intensity (ln)
23 | TAAAAACAAAAATGTTGTACATAATATAAAACAATT [XGTACX_site6380] | 7.72 ± 0.47
24 | CACACAATGGCTAGCTGTACATAATATATATCTACA [XGTACX_site4691] | 7.7 ± 0.47
25 | GAAAATAAAATAAATGCATGTAAATTTAATGTAATG [TGCATGCA_site996] | 8.03 ± 0.92
26 | TATATAAATATACAAACACACATACAAACATATATA [CACACA_site4754] | 7.95 ± 0.32
27 | GTGGGAAACATAAACACACACAAAAAGAAAAAATAG [CACACA_site4810] | 8.07 ± 0.72
28 | TCTCTAACTTTTAATACACACAAATAAATAAATAAA [CACACA_site6245] | 8.04 ± 0.52
29 | GTTTTATTTATTTCATGTACACAAAAAAGGTTTTAA [XGTACX_site6525] | 8.34 ± 0.46
30 | TACATACATACATACACACACACATATAAATACATA [CACACA_site4626] | 8.84 ± 0.67
31 | AAAATAAAATAATAAAATAAAATAATAATAAAATAA [TGCATGCA_negctrl_site401] | 7.535 ± 0.064
32 | AATACATATATATATTGTACATATAGGGAAAAATTA [XGTACX_site2275] | 7.78 ± 0.54
33 | TGGTATCAAAAGAATACACACACACCGACATATATA [CACACA_site9265] | 7.68 ± 0.43
34 | GAATATAAACATATTACACACATCTATCTGTACATT [CACACA_site5114] | 7.88 ± 0.7
35 | AAAAAAAAAAGGTGTACATGCAAAATAAATTCTTAA [TGCATGCA_site556] | 7.89 ± 0.61
36 | TATGGTAACATATGCTGTACAATATAATATGTTTAA [XGTACX_site1601] | 7.72 ± 0.45
37 | AAAAAAAAAAAACACACACACACACCGACAAAATAT [CACACA_site8411] | 8.12 ± 0.53
38 | TAAACATAAATATACACACAAACATATATGTATTTT [CACACA_site1214] | 7.53 ± 0.43
39 | AAATTATAAATACCTACACACTTATCAAAATAAATT [CACACA_site5280] | 7.64 ± 0.52
40 | AATATTTTTTTATAAACACACATATATATAAATATA [CACACA_site3524] | 7.89 ± 0.33
41 | TATATATTTTTATGTGTGCACTGTTTCATAAAAGAA | 10.5 ± 0.3
42 | TAATAATTTATATATGCATGTCAAAATAATATTAAA [TGCATGCA_site12] | 7.89 ± 0.55
43 | TATATAAATATAATATGTACATATAATATGTATATA [XGTACX_site8120] | 7.52 ± 0.2
44 | ACTTATAAAATAACATGTACAAATATTTATTATATA [XGTACX_site133] | 7.79 ± 0.58
